For the test, the system named is TYKNU. Kind of test: fractional viability relative to vehicle; TYKNU is a high-grade serous ovarian cancer line; higher = less growth inhibition. The settings on record: 72 h. Summed up: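 TYKNU control cells or lentiCRISPRv2 knockout derivatives were plated at 500 cells per well in duplicate into drug-stamped 384-well plates holding a ~2100-compound library at 2 or 10 μM. Culture was in RPMI 1640 with 10% FBS at 37 °C in 5% CO2, with 72 h of drug treatment. Viability was measured by Cell Titer Glo luminescence, and the averaged duplicate treatment wells were normalised to duplicate control wells at the same plate position.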

Where [1] appears, read: 2uM, genotype: DNM1L knockout (sgDNM1L #1).
Where [2] appears, read: 2uM, genotype: sgCTRLA1 (non-targeting control).
[3] abbreviates: 10uM, genotype: DNM1L knockout (sgDNM1L #1).
Setting [4] is: 10uM, genotype: sgCTRLA1 (non-targeting control).

SMILES strings stand for the structures. Counter-ions that a name gives are not always drawn. Whole data set: some 2,000 compounds, median “fractional viability relative to vehicle” near 0.91, cut for the lowest 2% near 0.045. This is one part of the list.

As for `CN(C)Cc1c[nH]c2ccccc12` [Gramine], the fractional viability is, setting by setting: under setting [1], 0.908; under setting [2], 1.14; under setting [3], 0.859; under setting [4], 0.971.
`COc1ccc(C(=O)N2CCCC2=O)cc1` [Aniracetam]: the fractional viability under setting [1] was 1.11, the fractional viability under setting [2] came to 1.2, the fractional viability under setting [3] amounted to 1.04 and the fractional viability under setting [4] was found to be 1.18.
`O=C(O[C@H]1C[C@H]2CC[C@@H](C1)[N+]21CCCC1)C(O)(c1ccccc1)c1ccccc1` [Trospium chloride]: the fractional viability was found to be 0.962 under setting [1], 1.06 under setting [2], 0.908 under setting [3] and 1.09 under setting [4].
`CC[C@@H](C(N)=O)N1CCCC1=O` [Levetiracetam]: the fractional viability under setting [1] came to 1.01, the fractional viability under setting [2] turned out to be 1.14, the fractional viability under setting [3] amounted to 0.962 and the fractional viability under setting [4] stood at 1.07.
For the compound `O=C(O)CCCc1ccc(N(CCCl)CCCl)cc1` [Chloroambucil], the fractional viability is, setting by setting: under setting [1], 0.784; under setting [2], 1.21; under setting [3], 0.494; under setting [4], 0.662.
With `CN1CCC(c2c[nH]c3ccc(O)cc23)CC1`, the fractional viability is, setting by setting: under setting [1], 1.16; under setting [2], 1.1; under setting [3], 0.921; under setting [4], 0.977.
Turning to `C1=C2CCCN[C@H]2[C@@H]2C[C@H]1[C@H]1CCCCN1C2` [Aloperine], the fractional viability was 1.14 under setting [1], 1.03 under setting [2], 1.02 under setting [3] and 0.909 under setting [4].
As for `COc1cc([C@@H]2c3cc4c(cc3[C@H](O)[C@H]3COC(=O)[C@@H]23)OCO4)cc(OC)c1OC` [Picropodophyllin (PPP)], the fractional viability is, setting by setting: under setting [1], 0.139; under setting [2], 0.142; under setting [3], 0.121; under setting [4], 0.0713.
The corresponding values for `NC(=O)CN1CC(O)CC1=O` (stereo unspecified) [Oxiracetam] are 0.755, 1.16, 0.688 and 0.976.
For the compound `CC(C)=CCC[C@]1(C)C=Cc2c(O)c3c(c(CC=C(C)C)c2O1)O[C@]12C(=C[C@@H]4C[C@H]1C(C)(C)O[C@@]2(C/C=C(/C)C(=O)O)C4=O)C3=O` [Gambogic Acid], the fractional viability worked out at 0.068 under setting [1], 0.0361 under setting [2], 0.0214 under setting [3] and 0.00876 under setting [4].
Turning to `CCNC(=O)C[C@@H]1N=C(c2ccc(Cl)cc2)c2cc(OC)ccc2-n2c(C)nnc21`, the fractional viability under setting [1] was determined as 0.592, the fractional viability under setting [2] was 0.61, the fractional viability under setting [3] amounted to 0.356 and the fractional viability under setting [4] is 0.424.
Consider `CN1c2ccccc2C(NCCCCCCC(=O)O)c2ccc(Cl)cc2S1(=O)=O` (stereo unspecified) [Tianeptine sodium], for which the fractional viability runs as follows: under setting [1], 1.01; under setting [2], 0.975; under setting [3], 0.905; under setting [4], 0.955.
For the compound `CC[C@@]1(O)C(=O)OCc2c1cc1n(c2=O)Cc2cc3ccccc3nc2-1` [Camptothecin], the fractional viability runs as follows: under setting [1], 0.104; under setting [2], 0.121; under setting [3], 0.0886; under setting [4], 0.0887.
For `O=C(O)CNC(=O)c1c(O)c2ccccc2n(Cc2ccccc2)c1=O`, the fractional viability runs as follows: under setting [1], 1.04; under setting [2], 1.17; under setting [3], 0.762; under setting [4], 1.
For `C[N+](C)(C)CCCCCCCCCC[N+](C)(C)C` [Decamethonium Bromide], the fractional viability was determined as 0.68 under setting [1], 1.03 under setting [2], 0.739 under setting [3] and 0.969 under setting [4].
The corresponding values for `CC1=C(O)C(=O)C=C2C1=CC=C1[C@@]2(C)CC[C@@]2(C)[C@@H]3C[C@](C)(C(=O)O)CC[C@]3(C)CC[C@]12C` [Celastrol] are 0.0457, 0.0557, 0.0154 and 0.0139.
As to `COc1cc(-n2c(=S)[nH]c3ccccc3c2=O)c(Cl)cc1Cl` [Mdivi-1], the fractional viability came out at 0.879 under setting [1], 0.994 under setting [2], 0.654 under setting [3] and 0.851 under setting [4].
As for `CC(=O)Nc1ccc(Cc2ccc(NC(C)=O)cc2)cc1`, the fractional viability turned out to be 0.759 under setting [1], 0.99 under setting [2], 0.747 under setting [3] and 0.791 under setting [4].
The corresponding values for `CCCN1C[C@H](CSC)C[C@@H]2c3cccc4[nH]cc(c34)C[C@H]21` [Pergolide mesylate] are 1.18, 1.02, 0.913 and 0.978.
The corresponding values for `C[C@H]1CCC/C=C/[C@@H]2C[C@H](O)C[C@H]2[C@H](O)/C=C/C(=O)O1` [Brefeldin A] are 0.0667, 0.0893, 0.0771 and 0.075.
As to `C[C@](O)(COc1ccc(C#N)cc1)C(=O)Nc1ccc(C#N)c(C(F)(F)F)c1`, the fractional viability runs as follows: under setting [1], 1; under setting [2], 1.13; under setting [3], 0.879; under setting [4], 1.03.
Consider `CC(=O)Nc1ccc(OC[C@](C)(O)C(=O)Nc2ccc([N+](=O)[O-])c(C(F)(F)F)c2)cc1` [Andarine], for which the fractional viability reads like this: under setting [1], 1.07; under setting [2], 1.1; under setting [3], 1.05; under setting [4], 1.03.
On to `C[C@]12N[C@H](Cc3ccccc31)c1ccccc12` [MK-801 (Dizocilpine)], for which the fractional viability runs as follows: under setting [1], 1.04; under setting [2], 1.12; under setting [3], 0.815; under setting [4], 1.06.
Turning to `C[C@]12CC[C@H]3[C@@H](CC[C@@]45O[C@@H]4C(O)=C(C#N)C[C@]35C)[C@@H]1CC[C@@H]2O` [Trilostane], the fractional viability turned out to be 1 under setting [1], 1.21 under setting [2], 0.872 under setting [3] and 1.06 under setting [4].
Take `COC(=O)C1=CCCN(C)C1` [Arecoline]: the fractional viability by setting is: under setting [1], 0.949; under setting [2], 1.26; under setting [3], 0.757; under setting [4], 1.06.
`CNCC(=O)c1ccc(O)c(O)c1` [Adrenalone HCl]: the fractional viability came out at 0.846 under setting [1], 1.01 under setting [2], 0.703 under setting [3] and 0.933 under setting [4].
For `CC(C)N(CCNC(=O)CN1CCCC1=O)C(C)C` [Pramiracetam], the fractional viability under setting [1] is 0.94, the fractional viability under setting [2] was 1.16, the fractional viability under setting [3] was 0.882 and the fractional viability under setting [4] is 1.02.
For the compound `C[N+]1(C)[C@@H]2C[C@@H](OC(=O)[C@H](CO)c3ccccc3)C[C@H]1[C@@H]1O[C@@H]12` [Methscopolamine], the fractional viability reads like this: under setting [1], 0.989; under setting [2], 1.14; under setting [3], 0.989; under setting [4], 0.908.
`C[C@]12CC[C@H](O)C[C@@H]1CC[C@@H]1[C@@H]2CC[C@]2(C)C(=O)CC[C@@H]12` [Epiandrosterone] had a fractional viability under setting [1] of 1.15, a fractional viability under setting [2] of 0.958, a fractional viability under setting [3] of 0.801 and a fractional viability under setting [4] of 0.952.

These data come from the supplement of paper PMC5919970.
